# Measurements published in PubChem BioAssay AID360 (National Center for Advancing Translational Sciences (NCATS), 2006).
# Hit rate of the full screen: of about 48,000 compounds, about 550 (1.1%) were called active. About 4% were inconclusive and are not listed. Rule as the data show it: active = potency below about 15 µM; inconclusive = mostly about 16 µM to 33 µM; inactive = weaker than that. The list shows a part of the results.
# Biological target: Lysosomal acid glucosylceramidase (Homo sapiens) (UniProt P04062)
# Test: Glucocerebrosidase;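 also: the screen sought inhibitors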
# Settings: purified enzyme, resorufin glucoside fluorescence (screen aimed at inhibitors), 20 min; series mostly up to 77 µM
# How it was run: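 Compounds titrated against 0.2 nM normal enzyme, 30 uM resorufin beta-D-glucopyranoside substrate, citrate/phosphate buffer with taurocholate and tween-20, pH 5.9. Reaction ran 20 min at room temperature; fluorescence (Ex 548/Em 600) gave AC50.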
# Potency is read from the fitted curve at half-maximal effect.
# Sequence of UniProt P04062 (P04062 whole entry, looked up): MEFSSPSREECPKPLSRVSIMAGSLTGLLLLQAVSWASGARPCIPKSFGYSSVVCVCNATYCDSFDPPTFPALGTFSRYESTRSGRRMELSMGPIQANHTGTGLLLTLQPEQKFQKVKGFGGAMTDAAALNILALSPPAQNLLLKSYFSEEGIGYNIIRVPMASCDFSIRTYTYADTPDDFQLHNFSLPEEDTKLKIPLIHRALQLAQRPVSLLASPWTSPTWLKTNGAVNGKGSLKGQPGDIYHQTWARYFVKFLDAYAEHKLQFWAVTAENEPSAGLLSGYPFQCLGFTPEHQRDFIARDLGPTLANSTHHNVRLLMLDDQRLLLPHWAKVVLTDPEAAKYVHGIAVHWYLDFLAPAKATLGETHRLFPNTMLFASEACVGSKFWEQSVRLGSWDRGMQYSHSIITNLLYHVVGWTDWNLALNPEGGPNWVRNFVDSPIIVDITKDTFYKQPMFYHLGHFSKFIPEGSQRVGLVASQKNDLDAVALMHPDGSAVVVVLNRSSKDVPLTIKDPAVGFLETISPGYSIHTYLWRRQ
row,SMILES,Potency
1,Cc1cc(NC(=O)COc2ccc(N(C)S(=O)(=O)c3ccccc3)cc2)no1,inactive: > 76.9 µM
2,CCN(CC)S(=O)(=O)c1ccc2c(c1)c(=O)c(C(=O)N1CCc3ccccc3C1)cn2C,inactive: > 76.9 µM
3,N=c1cc(C2(O)CCCCC2)n2c(nc3ccccc32)s1,inactive: > 76.9 µM
4,CCc1nnc(SCC(=O)Nc2ccccc2)nc1CC,inactive: > 76.9 µM
5,CCOc1cc(C2C(C(=O)OC)=C(C)N=C3SCCC(=O)N32)ccc1OC(C)=O (stereo not given),inactive: > 76.9 µM
6,COC(=O)C1=C(C)N=c2s/c(=C/c3ccoc3)c(=O)n2C1c1ccccc1 (stereo not given),inactive: > 76.9 µM
7,Cc1ccc(CN2CCC(C(=O)NCCC(C)C)CC2)o1,inactive: > 76.9 µM
8,O=[n+]1cc(-c2ccc(F)cc2)n([O-])c2c1CCC2,inactive: > 76.9 µM
9,COC(=O)c1c(-c2ccc(OC)c(OC)c2)csc1N,inactive: > 76.9 µM
10,Cc1c(NC(=O)c2cc(-c3cccs3)on2)c(=O)n(-c2ccccc2)n1C,inactive: > 76.9 µM
11,Cc1ccc2occ(C(c3nnnn3Cc3ccccc3)N3CCOCC3)c(=O)c2c1 (stereo not given),inactive: > 76.9 µM
12,C=CCn1c(SCC(N)=O)nnc1-c1cc(Br)ccc1O,inactive: > 76.9 µM
13,COc1ccc(CCNC(=O)c2c(O)c3cccc4c3n(c2=O)CC4)cc1OC,inactive: > 76.9 µM
14,CCN1CCCC1Cn1cnc2c([nH]c3cccc(Cl)c32)c1=O (stereo not given),inactive: > 76.9 µM
15,CCOC(=O)C(C(=O)OCC)C(C#N)c1ccccc1 (stereo not given),inactive: > 76.9 µM
16,CCOC(=O)c1c(C)oc2c1c(C(c1ccncc1)N1CCOCC1)c(O)c1ccccc12 (stereo not given),inactive: > 76.9 µM
17,Cc1c(C(=O)OCC2CCCO2)[nH]c2c1C(=O)CC(c1ccco1)C2 (stereo not given),inactive: > 76.9 µM
18,O=C(COC(=O)C1(c2ccccc2F)CCCC1)NC1CCS(=O)(=O)C1 (stereo not given),inactive: > 76.9 µM
19,COc1cc2c(=O)n(CCCN3CCOCC3)c(=S)[nH]c2c(OC)c1OC,inactive: > 76.9 µM
20,O=C(OCCCc1ccncc1)c1ccc(S(=O)(=O)N2CCOCC2)cc1,inactive: > 76.9 µM
21,O=S(=O)(Nn1cnnc1)c1ccccc1Cl,inactive: > 76.9 µM
22,Cc1cc(N2CCCCC2)n2nc(C)c(-c3ccccc3)c2n1,inactive: > 76.9 µM
23,CCn1c(Cn2nnc(-c3ccccc3)n2)nnc1SCC(=O)Nc1cccc(C(C)=O)c1,inactive: > 76.9 µM

row,SMILES,Potency
1,CN(C1CCS(=O)(=O)C1)S(=O)C12CC3CC(CC(C3)C1)C2 (stereo not given),inactive: > 76.9 µM
2,COc1cccc(OC)c1C(=O)N1CC(C)OC(C)C1 (stereo not given),inactive: > 76.9 µM
3,CC1CCCCN1C(=O)CSc1nnc(-c2ccco2)n1CC1CCCO1 (stereo not given),inactive: > 76.9 µM
4,c1ccn(-c2ncnc3sc4c(c23)CCCC4)c1,inactive: > 76.9 µM
5,O=c1ccn(Cc2ccccc2)c(=O)n1Cc1ccccc1,inactive: > 76.9 µM
6,COc1ccc(CNc2nc3ccccc3n2CCN2CCCCC2)c(OC)c1,inactive: > 76.9 µM
7,CCC(C)NC(=O)CSC1=Nc2ccccc2C2=NC(CC(=O)NCc3ccccc3)C(=O)N12 (stereo not given),inactive: > 76.9 µM
8,Cc1ccccc1NC(=O)CN(c1ccc(F)cc1)S(C)(=O)=O,inactive: > 76.9 µM
9,COc1ccc(CCNc2nc(N3CCOCC3)nc(N3CCOCC3)n2)cc1OC,inactive: > 15.4 µM
10,C=C(C)CSc1nncn1/N=C/c1ccc(OC)cc1,inactive: > 76.9 µM
11,COc1cc(NS(=O)(=O)c2ccc(NC(=O)c3ccco3)cc2)nc(OC)n1,inactive: > 76.9 µM
12,O=C(Cc1nc2ccccc2[nH]1)NCc1ccco1,inactive: > 76.9 µM
13,Cc1cc(C)n2nc3ccccc3c2n1,inactive: > 76.9 µM
14,CC(=O)c1cc(-c2ccccc2)[nH]c1N1CCOCC1,inactive: > 76.9 µM
15,COc1cc(C(c2nnnn2C(C)(C)C)N2CCN(C)CC2)cc(OC)c1OC (stereo not given),inactive: > 76.9 µM
16,CCCCC(=O)NCCc1ccc(S(N)(=O)=O)cc1,inactive: > 76.9 µM
17,Cc1ccc(C(=O)NCC(=O)O)cc1S(=O)(=O)N1CCCCC1,inactive: > 76.9 µM
18,CC(=O)c1sc2nc(-c3cccs3)cc(C(F)(F)F)c2c1N,active: 13.5 µM
19,O=C(c1cccn2c(=O)c3ccccc3nc12)N1CCN(Cc2ccc3c(c2)OCO3)CC1,inactive: > 76.9 µM
20,COc1cc(NC(=O)c2ccc(-c3ccc(Br)cc3)o2)ccc1NC(=O)C(C)C,inactive: > 76.9 µM
21,Cc1nn(-c2ccccc2)c2sc(C(=O)N(CC(=O)NC3CCCC3)Cc3ccco3)cc12,inactive: > 76.9 µM
22,O=C(O)CCC(=O)CCC(=O)c1ccccc1,inactive: > 76.9 µM
